# Some of the results follow.
# Target: T1, OsWOX13 (Oryza sativa, UniProt Q5QMM3 1-267)
# T1 sequence: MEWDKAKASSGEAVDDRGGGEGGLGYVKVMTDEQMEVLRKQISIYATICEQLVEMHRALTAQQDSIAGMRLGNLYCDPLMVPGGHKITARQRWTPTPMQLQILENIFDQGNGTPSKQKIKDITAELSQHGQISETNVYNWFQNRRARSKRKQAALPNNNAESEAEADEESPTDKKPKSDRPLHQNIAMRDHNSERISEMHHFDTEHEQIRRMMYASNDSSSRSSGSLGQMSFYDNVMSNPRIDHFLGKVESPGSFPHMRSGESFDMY
# Test: protein-binding microarray (RPBM); PBS, 2% BSA, 51.3 ng/ul salmon testes DNA, 50 uM zinc acetate, 200 nM TF, 25 C, 1 h; high values mean tight binding
# Conditions: protein: recombinant; tags: N-terminal polyhistidine and DsRed monomer fusion (pET32a); label: CyDye5-dUTP incorporated in the synthesized complementary strand; 3' TTTTT single-stranded linker to array surface; dsDNA, one strand shown
# Outline: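 Ni–NTA purification followed expression in E. coli BL21-CodonPlus of transcription factors fused N-terminally to a polyhistidine tag and DsRed. At 200 nM in PBS with 2% BSA, salmon testes DNA and 50 µM zinc acetate, the protein was incubated for 1 h at 25 °C with a custom Agilent array that had been primer-extended with Cy5-dUTP and blocked with 2% BSA. After washing, the array was read on an Axon 4000B scanner. The binding signal is per-feature fluorescence intensity in arbitrary units.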
row,Sequence,binding signal
1,AACTGTGAGTAAAAGGAGATTGATTAGATGATGCGAAGCTCGGAGTCACCTAGTGCAG,15900 fluorescence intensity (a.u.)
2,TGGCTTCTTTGATTAGGTATTTATTCGACGTGTGATATTGCGGAGTCACCTAGTGCAG,7660 fluorescence intensity (a.u.)
3,GGACTAATTTGTTTATTGAGTTTATATACGGATAATTAGACGGAGTCACCTAGTGCAG,31600 fluorescence intensity (a.u.)
4,ATGGCTTCAATTAATTCACCTATGGGCAGCATCAACCCACCGGAGTCACCTAGTGCAG,3980 fluorescence intensity (a.u.)
5,GTATGGTTGACTGAATTGTTTGACTTATCTTTGGCATTGACGGAGTCACCTAGTGCAG,6840 fluorescence intensity (a.u.)
6,TGTAACGAGATATGATTGAAAAGTACGAATTTCAGCGGAACGGAGTCACCTAGTGCAG,43900 fluorescence intensity (a.u.)
7,ATAATGTGTGATTAATTGAGTTTTAGTTATTACAAACTTGCGGAGTCACCTAGTGCAG,40800 fluorescence intensity (a.u.)
8,TTTTAATTATGTTAATTTGGCATAACAGTGAGTATTTTACCGGAGTCACCTAGTGCAG,36900 fluorescence intensity (a.u.)
9,GCTGTGATGAGGTGGATCATAAATTTATAATAGAGATGATCGGAGTCACCTAGTGCAG,6890 fluorescence intensity (a.u.)
10,GTGGGTATTGATTTGCTCCAGAAGTGAGATAAGCCTTTCTCGGAGTCACCTAGTGCAG,10700 fluorescence intensity (a.u.)
11,TGGCGACCAATTTTAATTGGGTCCTATCATGTTGGAGGAACGGAGTCACCTAGTGCAG,3160 fluorescence intensity (a.u.)
12,ATTAATGAACTAAAATGCGTCAAATATATAACATTGATATCGGAGTCACCTAGTGCAG,4470 fluorescence intensity (a.u.)
13,TTGTTAAATAGATTAATCTGATATTTTAGAACAACTTTCACGGAGTCACCTAGTGCAG,12800 fluorescence intensity (a.u.)
14,ATTTTGTGATTTCGTATCATTGTATTGGTTGCAGGTCATTCGGAGTCACCTAGTGCAG,6590 fluorescence intensity (a.u.)
15,CCACATTAATATTGATATTAATGAATCTAGACTATATCTCCGGAGTCACCTAGTGCAG,6470 fluorescence intensity (a.u.)
16,GTGTAAATTAAATTTGGCGTTTTGTATTTGTGGAGGGACACGGAGTCACCTAGTGCAG,23800 fluorescence intensity (a.u.)
17,ATTAATTTTACTCGGCTAATGGCATGCATATTTCACGGAACGGAGTCACCTAGTGCAG,15000 fluorescence intensity (a.u.)
18,GCGCTGATGAGCATTTTGTTGAAGACAACATTGAGGTGCCCGGAGTCACCTAGTGCAG,19100 fluorescence intensity (a.u.)
19,CATAATAATTCTGTTAATTTATCGTTGGGGTAGTTTATTACGGAGTCACCTAGTGCAG,19000 fluorescence intensity (a.u.)
20,GTTATTTTGATTAGGGTGCAATTAAGCTGCCCAAACCTTCCGGAGTCACCTAGTGCAG,22000 fluorescence intensity (a.u.)
21,CTGCAGATAACGCTTGATGATTTACGACCAACTGCAAATTCGGAGTCACCTAGTGCAG,4510 fluorescence intensity (a.u.)

row,Sequence,binding signal
1,GAAATCAATTATGTAGCAGTGCGATACATACAAATTTTGACGGAGTCACCTAGTGCAG,10900 fluorescence intensity (a.u.)
2,GATTTGATGAATGAAGTATTTAGTAGTAGAAGGACTTGAGCGGAGTCACCTAGTGCAG,3400 fluorescence intensity (a.u.)
3,CTCCTTCTGATTTGGGCGCGGTGGATTTGTGAATGGCAGCCGGAGTCACCTAGTGCAG,5220 fluorescence intensity (a.u.)
4,GTGACAATTAAAGATTTGCCACTAGACCCCACATGTCATACGGAGTCACCTAGTGCAG,4820 fluorescence intensity (a.u.)
5,AATTTACGTAATTATAATTTATTTTGTTATGAGTTGTTTTCGGAGTCACCTAGTGCAG,29500 fluorescence intensity (a.u.)
6,AAGGCGATTAGATTAGCGAGCACCGCACACCCGAACGCCACGGAGTCACCTAGTGCAG,5830 fluorescence intensity (a.u.)
7,AGTGAAACGGTGTCAATTACTGCCTTGTCACTTACTGATGCGGAGTCACCTAGTGCAG,9520 fluorescence intensity (a.u.)
8,TTTGTGAATTTGGTAATAATTTATTCAAATTCAATATAAACGGAGTCACCTAGTGCAG,3510 fluorescence intensity (a.u.)
9,CACCTGATTTTCAAAATTCAAGCAAATGCAGCTTCTGATGCGGAGTCACCTAGTGCAG,4770 fluorescence intensity (a.u.)
10,ACCATTGATGGTCCCAATTTAAAATATTTGGCCGAATCTTCGGAGTCACCTAGTGCAG,3840 fluorescence intensity (a.u.)
11,ATCAATTAATCATGTTGTGTTTATCCACCATTGTCGACTGCGGAGTCACCTAGTGCAG,16800 fluorescence intensity (a.u.)
12,TTTACTAATAAAATAATTAGGAGTTATTTTGCATTTATATCGGAGTCACCTAGTGCAG,3880 fluorescence intensity (a.u.)
13,TGATAACTGTGTTGATGTTAACAGGCCATCGATGTGTATCCGGAGTCACCTAGTGCAG,9200 fluorescence intensity (a.u.)
14,TTCCTTATAAATTAGATTGGTATGGTTCCTTGATACTAACCGGAGTCACCTAGTGCAG,16100 fluorescence intensity (a.u.)
15,TATTAATTAATGGGATGTATTCTCCCCTTCTCTCATCATACGGAGTCACCTAGTGCAG,36500 fluorescence intensity (a.u.)
16,ATATTCAGCTGATTGGGGCATTGGGTATTTGCAGTGAGCACGGAGTCACCTAGTGCAG,18500 fluorescence intensity (a.u.)
17,CACTGATTTTGCTATGTTTACTTTATGTATAGGTGTTTCTCGGAGTCACCTAGTGCAG,5500 fluorescence intensity (a.u.)
18,ATTCCATTTCCATTCCCGCTTGATTTTCCCTCCCATTCTTCGGAGTCACCTAGTGCAG,5400 fluorescence intensity (a.u.)
19,GAAACATGTTGAGATTGATTTACATTTTGTGCGCGAGAAGCGGAGTCACCTAGTGCAG,18000 fluorescence intensity (a.u.)
20,AATTTGATAATAACTTAGAGTGATTAACTTGCTGTATGATCGGAGTCACCTAGTGCAG,10700 fluorescence intensity (a.u.)
21,ATGATTTCGTTAATATCAAGATATATCAGTCGAGTCTTCTCGGAGTCACCTAGTGCAG,5410 fluorescence intensity (a.u.)

row,Sequence,binding signal
1,CGTGATTATATTCCGATGAAACTATAACAAATATTTCAGGCGGAGTCACCTAGTGCAG,40500 fluorescence intensity (a.u.)
2,TGATAATGTCTAAATTTGTATACAAAAGTTGATTTATTTTCGGAGTCACCTAGTGCAG,3860 fluorescence intensity (a.u.)
3,AGAGGGTGGGGACATGGGGATTGATTTCACCTGTAGGATTCGGAGTCACCTAGTGCAG,3430 fluorescence intensity (a.u.)
4,TGATTTAATTTAATGCATCTGGATCTTCAATCGGATGGTTCGGAGTCACCTAGTGCAG,24200 fluorescence intensity (a.u.)
5,TTCTCTAATTTATTAGAACGCCACATGACGGCTTGAGAGTCGGAGTCACCTAGTGCAG,7680 fluorescence intensity (a.u.)
6,ACAACTTGATTTCATTGAATTTATTGTGGCGCATTTACAGCGGAGTCACCTAGTGCAG,11900 fluorescence intensity (a.u.)
7,CCAAATACACAGCCCATTAACACAAGATTAATGACCCACACGGAGTCACCTAGTGCAG,4780 fluorescence intensity (a.u.)
8,ATAATTTATTAGTACTAGTATATTGCATCTATCCTATATACGGAGTCACCTAGTGCAG,5090 fluorescence intensity (a.u.)
9,GTTGCAGGGTGGGGATTGTTAAATTTATTGTTTGGCTGGACGGAGTCACCTAGTGCAG,8170 fluorescence intensity (a.u.)
10,AAACGTCAATTAACATGGAACCGGAGGGAGTAGTTCCATACGGAGTCACCTAGTGCAG,14800 fluorescence intensity (a.u.)
11,GAGTATTAATTACATAAATTTTAAAACAAATTTATTCAATCGGAGTCACCTAGTGCAG,12900 fluorescence intensity (a.u.)
12,AGTATCTCGAGTTTATACACTAATTAGTACTCCAGCAGCTCGGAGTCACCTAGTGCAG,5670 fluorescence intensity (a.u.)
13,CCGCCCGCATCCATCACCTAAATTTACTGGTAATCGAGAGCGGAGTCACCTAGTGCAG,5080 fluorescence intensity (a.u.)
14,ATTTGATTTGAGTTTTAAGACAGGAAGCTTTTGGAATTACCGGAGTCACCTAGTGCAG,24700 fluorescence intensity (a.u.)
15,AAGATGTGACAATTAAGAATTTATCACTCATAGTCTATGACGGAGTCACCTAGTGCAG,5730 fluorescence intensity (a.u.)
16,AAAGGTGATGTGATAAATTGACTCATTCCATGATCGACTCCGGAGTCACCTAGTGCAG,18600 fluorescence intensity (a.u.)
17,GCGTATTGACTGTTGAGCCCGGCCCGTATGAATCCCTTGTCGGAGTCACCTAGTGCAG,6710 fluorescence intensity (a.u.)
18,ATAGATGACAAATTGGGCAGCGGGAGGGACAGAAACTGGACGGAGTCACCTAGTGCAG,6800 fluorescence intensity (a.u.)
19,CATCAATCACAAAACTGGCTATAACGCCTCTTCCATATTCCGGAGTCACCTAGTGCAG,19800 fluorescence intensity (a.u.)
20,ATCATTAATTAACAAAACAGACTTAATGGTTCTTGATCTTCGGAGTCACCTAGTGCAG,36000 fluorescence intensity (a.u.)
21,CACTTGATTAATTTATCCTCTCCTCGCGTCGCTGTCGCGTCGGAGTCACCTAGTGCAG,52700 fluorescence intensity (a.u.)

row,Sequence,binding signal
1,AAACCTACCAATTGATTAATTAATGTCAAAAGATTTTGCACGGAGTCACCTAGTGCAG,30700 fluorescence intensity (a.u.)
2,TACTAGTAATTACCGCTAGTAATCACGATAATAGTATGGCCGGAGTCACCTAGTGCAG,17000 fluorescence intensity (a.u.)
3,AGGCTTAATTACGTGTACATAACTAGTATATAATAATATACGGAGTCACCTAGTGCAG,11600 fluorescence intensity (a.u.)
4,AATAATTTTATACTCCACCATTTTCAAATAATTGACACGGCGGAGTCACCTAGTGCAG,25000 fluorescence intensity (a.u.)
5,AATAACTAACTTTTGAGATTGAACGGAGGTAGTAGCCATCCGGAGTCACCTAGTGCAG,20300 fluorescence intensity (a.u.)
6,TGGTTGATGAGAAGATAGGTGAACTGGATGATGCCTCTCCCGGAGTCACCTAGTGCAG,4570 fluorescence intensity (a.u.)
7,ATCAAATCAATAATTGAATATATTTTCATAATAAATTTGTCGGAGTCACCTAGTGCAG,29400 fluorescence intensity (a.u.)
8,AATAGCGTCTTCAATCAATAGCGTCGTACAACCATTCAACCGGAGTCACCTAGTGCAG,5950 fluorescence intensity (a.u.)
9,TGATTGATTAGTCACCACACCACAGTGCCACACACGTAGTCGGAGTCACCTAGTGCAG,46600 fluorescence intensity (a.u.)
10,TCAATTTGATTTGCTTTTGCATCTTAGTACAACTTTATTCCGGAGTCACCTAGTGCAG,11900 fluorescence intensity (a.u.)
11,ATAATTGATGGAATTACTGAAGCAGTTGAGCACAATGCGTCGGAGTCACCTAGTGCAG,41900 fluorescence intensity (a.u.)
12,TCTAATGATGCGTTAATGCTAGTGCACATCTGTAATGTCACGGAGTCACCTAGTGCAG,3840 fluorescence intensity (a.u.)
13,TTGTCATAATTTGAAATTCAAATTCAAAACTGTTCAAACACGGAGTCACCTAGTGCAG,8110 fluorescence intensity (a.u.)
14,TTAGTCACCAATCAACTATTGTACCAACAATAGTGGGTCCCGGAGTCACCTAGTGCAG,10500 fluorescence intensity (a.u.)
15,CCTGATTAACTGACAGCTCCACCCCGTTTTGCTATTCCAGCGGAGTCACCTAGTGCAG,46200 fluorescence intensity (a.u.)
16,ACTCGTTAATCATATACTTAATCACTTTGTCTCGTAGGTTCGGAGTCACCTAGTGCAG,11800 fluorescence intensity (a.u.)
17,TTAATTAACTCAGCTTCTAGTTCATATGACTCTTGCTAATCGGAGTCACCTAGTGCAG,8400 fluorescence intensity (a.u.)
18,CTTTAACTATAGTAAACAGTAATTTTATGGAATTCACTCACGGAGTCACCTAGTGCAG,4610 fluorescence intensity (a.u.)
19,TATTGAGCCTAATTAATCTATGATTAGGCTATGTGATGCTCGGAGTCACCTAGTGCAG,12900 fluorescence intensity (a.u.)
20,TAAAATTTTCTCTTAGATTACTCATCGAATTTACGATCCGCGGAGTCACCTAGTGCAG,9970 fluorescence intensity (a.u.)
21,CGTGAGACGACGAGATTGACGTCTTCTTCCAAGAGCCCTTCGGAGTCACCTAGTGCAG,11300 fluorescence intensity (a.u.)
